# Among all 330,000 compounds or so, about 4,200 (1.3%) were called active. Inconclusive results, whose numbers are uncertain, are shown with a selection of clear calls. Calls follow the shape of the dose curve; as a rule, active = well fitted activation curve with a large enough effect; inconclusive = small, poorly fitted or top-dose-only effect; inactive = no such curve, though single readings can be large or run the other way. Where the call is inconclusive, the potency comes from a doubtful curve fit.
# Assay: qHTS screen for small molecules that induce genotoxicity in human embryonic kidney (HEK293T) cells expressing luciferase-tagged ELG1; also: nearly all actives have a fitted effect of over 60% in size; as to activity change, positive = activation: % of control where 0% means no effect
# Settings: HEK293T ELG1-luciferase reporter, luminescence, 16 h; series mostly up to 46 µM; activity change, positive = activation: at the top concentration
# Summary of the method: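 After overnight (16 hr) compound treatment at 37 °C, ELG1-luciferase HEK293T cells were lysed with ONE-Glo; luminescence quantified 30 min later at room temperature.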
# Potency is read from the fitted curve at half-maximal effect; tags tell the direction and shape of the fitted curve.
SMILES,Potency,"activity change, positive = activation"
O=C(/C=C/c1ccccc1[N+](=O)[O-])c1ccc(F)cc1,"inconclusive: 18.3 µM [activator, single point]",
NC(=Nc1ccc(Br)cc1)c1ccccc1,"inconclusive: 20.6 µM [activator, partial curve, poor fit]",
COc1cc(C(=O)Nc2ccc(N(C)C)cc2)cc(OC)c1OC,"inconclusive: 16.4 µM [activator, single point]",
COc1ccc(/C=C\C(=O)c2c(O)ccc3c(C)cc(=O)oc23)cc1OC,,inactive: -16.5%
O=C1C(C=NCc2cccnc2)=C(O)c2ccccc21,active: 2.06 µM,
COc1cc(/C=C(\C#N)C(=O)Nc2ccccc2)ccc1OCCN1CCOCC1,"inconclusive: 9.2 µM [activator, partial curve, poor fit]",
NC(=O)c1c(NC(=O)c2ccccc2F)sc2c1CCCC2,"inconclusive: 3.26 µM [activator, full curve]",
COc1cc2c(cc1NC(=O)COc1ccccc1OC)oc1ccccc12,"inconclusive: 20.6 µM [activator, single point]",
Cc1cccc(/C(N)=N/OC(=O)C23CC4CC(CC(C4)C2)C3)c1,"inconclusive: 23.1 µM [activator, partial curve, poor fit]",
Cc1cccc(Oc2ccccc2NC(=O)C2=COCCO2)c1,,inactive: 0.472%
COc1ccc(C(=O)OCc2cc(=O)n3c(C)csc3n2)cc1F,"inconclusive: 10.3 µM [activator, partial curve, poor fit]",
OCC[C@@H]1C[C@H](O)[C@@H](O)[C@]2(CCc3ccccc3O2)O1,,inactive: 4.3%
Cc1ccc(NC(=O)c2cccc(S(=O)(=O)NCc3ccccc3)c2)nc1,,inactive: -9.13%
O=C(c1ccc2ccccc2n1)N1CCN(c2ccccc2Cl)CC1,"inconclusive: 13 µM [activator, partial curve]",
CNC(=O)/C(C#N)=C/c1cc(C)n(-c2ccc(N3CCOCC3)cc2)c1C,"inconclusive: 23.1 µM [activator, partial curve, poor fit]",
COc1cc2c(cc1OC)-c1cc(Nc3ccc(F)cc3)nc(=O)n1CC2,"inconclusive: 11.6 µM [activator, partial curve, poor fit]",
COc1ccc(CN=C2NN=C(c3ccc(Cl)cc3)CS2)cc1,"inconclusive: 18.3 µM [activator, partial curve]",
O=C(Oc1ccc(-c2cnc3ccccc3n2)cc1)c1ccc(Br)o1,active: 9.2 µM,
C[C@]12CC[C@H](OC(=O)CCC(=O)O)CC1=CCC1C2CC[C@@]2(C)C1CC[C@@H]2N (stereo partly specified),,inactive: 1.9%
CC(C)c1ccc(Nc2ncccc2C(=O)O)cc1,"inconclusive: 2.31 µM [activator, partial curve]",
Cc1ccsc1/C=N/Nc1ccc(C(=O)O)cc1,"inconclusive: 0.259 µM [activator, partial curve, poor fit]",
Cc1ccccc1SCC(=O)Nc1ccc(N2CCOCC2)cc1,"inconclusive: 29.1 µM [activator, single point]",
O=C(CSc1nnc(-c2ccncc2)o1)Nc1ccccc1C(F)(F)F,"inconclusive: 29.1 µM [activator, single point]",
Cc1cc(C(=O)N/N=C/c2cccc([N+](=O)[O-])c2O)n[nH]1,,inactive: -2.88%

SMILES,Potency,"activity change, positive = activation"
COc1cc(C2C(C#N)=C(C)NC3=C2C(=O)c2ccccc23)cc(OC)c1OC (stereo unspecified),"inconclusive: 1.03 µM [activator, partial curve, poor fit]",
Cc1cccc(C(=O)Nc2ccc(C)c(OC(=O)c3cccc(C)c3)c2)c1,"inconclusive: 23.1 µM [activator, partial curve, poor fit]",
CC(C)(CC(=O)O)Cc1nc(-c2ccc(Cl)cc2)no1,"inconclusive: 16.4 µM [activator, partial curve, poor fit]",
Cc1ccc(N2C(=O)CC(NCc3ccc4c(c3)OCO4)C2=O)cc1Cl (stereo unspecified),"inconclusive: 29.1 µM [activator, single point]",
O=C(Nc1ccccc1)c1cnc2ccccc2n1,"inconclusive: 23.1 µM [activator, partial curve, poor fit]",
COc1ccc(C)cc1NC(=O)C(Sc1nnnn1C)c1ccccc1 (stereo unspecified),,inactive: -2.67%
C[C@@]12C(=O)Nc3ccc(Br)cc3C(=O)N1[C@H]1c3cc(Br)ccc3OC[C@@H]1[C@@H]2c1ccccc1,,inactive: 0.393%
O=C(Nc1ccccc1C(=O)Nc1ccncc1)c1ccccc1,,inactive: 4.23%
Cc1oc(-c2ccc(-c3ccccc3)cc2)nc1CN1CCN(CC(=O)N(C)C)CC1,"inconclusive: 2.91 µM [activator, full curve]",
O=C(N/N=C(/c1ccccc1)c1ccncc1)c1ccc2c(c1)OCO2,,inactive: -0.832%
COc1ccc(C(=O)NN/C(=N/S(=O)(=O)c2ccc(C)cc2)c2ccccc2)cc1,"inconclusive: 3.26 µM [activator, full curve]",
CC(C)c1cc2cc3ccc(=O)oc3cc2o1,"inconclusive: 23.1 µM [activator, partial curve, poor fit]",
Cc1ccc(C(=O)N/N=C/c2cccc(OC(=O)/C=C/c3ccco3)c2)cn1,,inactive: 9.14%
O=C(CSc1nnc2ccc(-c3ccccn3)nn12)NCC1CCCO1 (stereo unspecified),,inactive: -3.46%
CCC(=O)Nc1ccc(C=C(C(C)=O)C(C)=O)cc1,"inconclusive: 32.6 µM [activator, partial curve, poor fit]",
CCOc1cccc2cc(C(=O)NCc3ccc(Cl)cc3)c(=N)oc12,,inactive: -1.48%
O=C(CSc1nnc(-c2ccccc2Br)o1)Nc1cccc2ccccc12,"inconclusive: 29.1 µM [activator, single point]",
Cc1ccc(N(CC(O)CN2CCCCC2)S(=O)(=O)c2ccc(C)cc2)cc1 (stereo unspecified),,inactive: 1.3%
Cc1csc(SCC(=O)Nc2ccc3c(c2)OCCO3)n1,"inconclusive: 16.4 µM [activator, partial curve, poor fit]",
CCc1nnc(NC(=O)c2ccc3ncsc3c2)s1,"inconclusive: 20.6 µM [activator, partial curve]",
CC1(C)CC(NC(=O)c2cc(COc3cccc(C(F)(F)F)c3)on2)CCO1 (stereo unspecified),"inconclusive: 20.6 µM [activator, partial curve, poor fit]",
Cc1cc(C)n(CCN(C)C(=O)CCc2nnc(CCC3CCCCC3)o2)n1,"inconclusive: 20.6 µM [activator, partial curve]",
Cc1cc(NC(=O)Nc2ccccc2[N+](=O)[O-])n(C)n1,,inactive: 2.47%
Cc1cc(C)c2ccc(N)nc2c1O,"inconclusive: 10 µM [activator, partial curve]",

SMILES,Potency,"activity change, positive = activation"
CCc1ccc(OCC(=O)Nc2ccc(-c3nc4ccccc4o3)c(O)c2)cc1,"inconclusive: 18.4 µM [activator, partial curve]",
CCC(=NCc1ccco1)c1c(C(F)(F)F)[nH]n(-c2nc3ccccc3s2)c1=O,active: 9.2 µM,
CN1CCN(c2ccccc2NC(=O)c2ccc(N3CCCCC3)c([N+](=O)[O-])c2)CC1,,inactive: -10.5%
Clc1ccccc1OCc1nn2c(-c3ccncc3)nnc2s1,,inactive: -2.93%
O=C(/C=C/c1ccc([N+](=O)[O-])cc1)c1cccs1,,inactive: 4.87%
CCCc1nnc(NC(=S)Nc2ccccc2)s1,"inconclusive: 9.2 µM [activator, partial curve]",
COc1ccc(CN(C(=O)c2oc3cc(C)ccc3c2C)C2CCS(=O)(=O)C2)cc1OC (stereo unspecified),,inactive: -0.0487%
O=C(Nc1ccc2c(c1)OCCO2)C1CCCC1,"inconclusive: 9.2 µM [activator, partial curve]",
COc1ccc(NC(=O)c2cc3ccc(O)cc3o/c2=N\O)cc1,"inconclusive: 2.59 µM [activator, partial curve]",
Cc1ccc(N2C(=O)c3n[nH]c(C)c3C2c2ccco2)cc1 (stereo unspecified),"inconclusive: 18.4 µM [activator, single point]",
Cc1ccc(NC(=O)CSc2nccn2Cc2ccco2)cc1,"inconclusive: 20.6 µM [activator, single point]",
COc1cccc(NC(=O)c2ccco2)c1,active: 14.6 µM,
COC(=O)N/N=C/c1ccc(Oc2ccccc2)cc1,"inconclusive: 20.6 µM [activator, single point]",
CC/C(=N\NC(=S)NC(C)C)c1ccc(OC)c(OC)c1,"inconclusive: 23.1 µM [activator, partial curve, poor fit]",
COc1cc(/C=N\NC(=O)c2ccc(Cn3nc([N+](=O)[O-])c(Cl)c3C)o2)ccc1O,,inactive: 11.8%
CCOC(=O)C1=C(c2cccc(Oc3ccccc3)c2)NC(=S)NC1C (stereo unspecified),,inactive: -12.8%
O=C(c1cc(S(=O)(=O)N2CCOCC2)ccc1F)N1CCc2ccccc21,,inactive: -4.09%
COC(=O)c1nc(N)sc1-c1ccc(Cl)c(Cl)c1,"inconclusive: 20.6 µM [activator, partial curve, poor fit]",
CC(=O)c1ccc(NC(=O)CSc2nc(=O)n3cccc(C)c3n2)cc1,"inconclusive: 18.3 µM [activator, partial curve]",
O=C1CCC(=O)N1c1ccc(CSc2nc3ccccc3[nH]2)cc1,"inconclusive: 29.1 µM [activator, single point]",
Cn1nnnc1SCc1ccc(C(=O)Nc2ccccc2F)cc1,"inconclusive: 14.6 µM [activator, partial curve, poor fit]",
COc1ccc(CNC(=O)C2COc3ccccc3O2)c(OC)c1 (stereo unspecified),"inconclusive: 23.1 µM [activator, partial curve, poor fit]",
CCN(/C=N/c1sc2c(c1C#N)CCCCC2)CC,"inconclusive: 1.64 µM [activator, partial curve, poor fit]",

# From PubChem BioAssay AID504466 (National Center for Advancing Translational Sciences (NCATS), 2011)
